From publication PMC4336329 (PLoS ONE, 2015)
About 2,200 (0.71%) of roughly 310,000 compounds showed an effect of 50% or more. The effect is printed as a negative number. This is one part of the list.

molecular target: human ether-à-go-go-related gene (hERG) potassium channel (human, UniProt Q12809); test: primary screen, population patch clamp on CHO cells stably expressing hERG
Sequence (Q12809 whole entry, looked up): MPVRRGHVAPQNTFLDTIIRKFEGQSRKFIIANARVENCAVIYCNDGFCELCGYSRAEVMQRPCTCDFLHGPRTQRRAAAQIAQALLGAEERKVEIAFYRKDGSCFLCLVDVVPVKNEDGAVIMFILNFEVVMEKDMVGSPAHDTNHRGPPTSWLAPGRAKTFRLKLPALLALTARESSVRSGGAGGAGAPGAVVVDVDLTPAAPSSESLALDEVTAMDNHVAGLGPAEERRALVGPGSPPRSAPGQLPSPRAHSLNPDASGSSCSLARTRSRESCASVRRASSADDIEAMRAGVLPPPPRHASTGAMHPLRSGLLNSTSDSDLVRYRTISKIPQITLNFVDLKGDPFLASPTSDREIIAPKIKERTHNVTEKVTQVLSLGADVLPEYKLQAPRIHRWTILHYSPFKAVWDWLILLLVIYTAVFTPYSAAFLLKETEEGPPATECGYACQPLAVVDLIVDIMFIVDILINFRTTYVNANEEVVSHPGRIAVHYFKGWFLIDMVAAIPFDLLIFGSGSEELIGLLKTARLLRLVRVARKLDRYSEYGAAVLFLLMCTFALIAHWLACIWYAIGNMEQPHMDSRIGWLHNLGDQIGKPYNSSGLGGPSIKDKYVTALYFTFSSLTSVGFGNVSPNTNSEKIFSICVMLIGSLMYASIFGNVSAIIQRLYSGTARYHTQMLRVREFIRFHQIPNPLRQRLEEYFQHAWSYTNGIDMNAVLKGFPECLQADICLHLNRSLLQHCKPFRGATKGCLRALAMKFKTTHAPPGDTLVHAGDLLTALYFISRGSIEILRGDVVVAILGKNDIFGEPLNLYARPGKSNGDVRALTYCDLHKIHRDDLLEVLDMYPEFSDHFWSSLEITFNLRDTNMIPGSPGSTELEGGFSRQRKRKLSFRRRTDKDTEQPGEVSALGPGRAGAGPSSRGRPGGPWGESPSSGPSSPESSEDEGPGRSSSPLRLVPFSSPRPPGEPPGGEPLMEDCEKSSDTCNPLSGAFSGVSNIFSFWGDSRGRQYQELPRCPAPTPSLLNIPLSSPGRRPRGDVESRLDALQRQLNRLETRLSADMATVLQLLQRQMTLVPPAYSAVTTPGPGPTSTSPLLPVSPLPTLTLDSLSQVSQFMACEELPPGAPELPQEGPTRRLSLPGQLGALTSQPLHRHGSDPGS

SMILES	hERG current change (%, negative = inhibition) at 1uM [%]
Cc1cccc(N2CCN(C(=O)COc3ccc4c(c3)CCC4)CC2C)c1 (centres unmarked)	8.31
CC(C)CCNC(=O)C1CC(c2ccccc2[N+](=O)[O-])=NO1 (centres unmarked)	5.5
O=C(CSc1nnnn1C1CCCC1)N1CCCc2ccccc21	13.3
COC(=O)c1cccc(C(=O)N2CCCC(C(=O)c3cccc(OC(C)C)c3)C2)c1 (centres unmarked)	5.81
CCN1CCc2c(C#N)c(N3CCOCC3)nc(N3CCOCC3)c2C1	14.5
Cc1cc(-c2ccccc2)nn1-c1nc2c(c(=O)[nH]c(=O)n2C)n1C	5.39
Cc1ccc(OCC(=O)Nc2ccc(N3CCOCC3)cc2)c([N+](=O)[O-])n1	12.2
CCOC(=O)C1=C(C)N=C2c3ccccc3C(=O)C2C1c1ccc(Br)cc1 (centres unmarked)	3.1
CS(=O)(=O)N1CCC(C(=O)Nc2cc(Cl)c(Cl)cc2Cl)CC1	14.7
O=C(Nc1ccccc1)c1ccc(OC(=O)c2cc3ccccc3o2)cc1	21.6
COc1cc2oc3ccccc3c2cc1N(CC(=O)N(C)C)S(=O)(=O)c1ccccc1	0.641
O=C(CCCNS(=O)(=O)c1ccc(Br)cc1)N1CC[C@@]2(O)CCCC[C@H]2C1	-2.19
O=C(Nc1ccccc1C(=O)NCCCN1CCOCC1)c1cccc([N+](=O)[O-])c1	-21.2
CC1CCN(CC(=O)NNC(=O)c2cccc(Br)c2)CC1	5.79
CC(=O)c1c(C)[nH]c(C(=O)NCc2ccccc2Cl)c1C	8.99
CCN(CC)S(=O)(=O)c1ccc(C(=O)Oc2ccc3c(c2)OCO3)cc1	-0.676
Cn1c(=O)c2c(ncn2CC(=O)N/N=C/C=C/c2ccco2)n(C)c1=O	12.4
Cn1c(SCC(N)=O)nnc1-c1cnccn1	14.8
Nc1ccc(O)c([N+](=O)[O-])c1	16.7

SMILES	hERG current change (%, negative = inhibition) at 1uM [%]
O=S(=O)(c1ccc2ccccc2c1)N1CCN(S(=O)(=O)N2CCOCC2)CC1	4.9
COc1cccc(N(CC(=O)NC(C)c2ccccc2)S(C)(=O)=O)c1 (centres unmarked)	16.9
CCOc1ccc(/C=C/C(=O)Nc2ccc3[nH]c(=O)[nH]c3c2)cc1	13
Cc1ccccc1NC(=O)CSc1nnc(Cc2cccn2C)n1-c1ccc(F)cc1	8.11
CN(c1cccc(NC(=O)Nc2ccc(Cl)cc2)c1)S(C)(=O)=O	-2.89
COC(=O)CN1C(=O)N/C(=C/c2ccc(OC)c(C)c2OC)C1=O	18.4
CC(NC(=O)c1ccc(Br)s1)c1ccncc1 (centres unmarked)	6.83
CCOC(=O)C1CCN(S(=O)(=O)c2ccc(Cl)cc2OC)CC1	-24.7
COc1ccc(C2(c3ccc(OC)cc3)NC(=O)N(CC(=O)Nc3ccc(OC(F)F)cc3)C2=O)cc1	9.33
Cc1ccc(N2C(=O)CC(Cc3ccc(Cl)cc3)C2=O)cc1 (centres unmarked)	10.8
CC(=O)Nc1ccc(Sc2ccccc2C(=O)Nc2ccc(F)cc2)cn1	22.9
Cc1nn(CC#N)c(=O)n1N(C)c1ncc(C(F)(F)F)cc1Cl	11.2
O=C(CN1CCN(c2ncccn2)CC1)N1CCc2ccccc21	14.4
NS(=O)(=O)c1ccc(NC(=O)CN2CCCN(S(=O)(=O)c3ccc(F)cc3)CC2)cc1	12.4
COc1ccc(NC(=O)/C(C#N)=C/c2ccc3c(c2)n(C)c(=O)n3C)cc1	5.03
N#Cc1ccsc1NC(=O)COC(=O)c1ccc2ccccc2c1	0.816
COc1cc2nc(C)sc2cc1SC	-9.35
O=C(Nc1ccccc1)c1ccc(-c2ccccc2Cl)o1	15.7
COc1ccc(-c2nc(CS(=O)(=O)CC(=O)NC3CCC(C)CC3)c(C)o2)cc1 (centres unmarked)	13.1

SMILES	hERG current change (%, negative = inhibition) at 1uM [%]
O=C(Nc1nc(SCc2ccc(F)cc2)ns1)c1ccco1	2.86
Cc1ccc(C(C)NC(=O)C2CCCC2)cc1C (centres unmarked)	7.58
CCOC(=O)C(C)Oc1c(Br)cc(C2NC(=O)NC(C)=C2C(C)=O)cc1OCC (centres unmarked)	6.76
Cc1cc(N2CCN(Cc3nc(-c4ccc(F)cc4)oc3C)CC2)cc(C)n1	-27.2
CC(C)COc1ccc(C(=O)N/C(=C\c2cccc([N+](=O)[O-])c2)C(=O)OC(C)C)cc1	5.91
CCCC(=O)Nc1nnc(CC(=O)OCC)s1	5.27
CC(C)COc1ccc(C(=O)OCCN2CCCCC2)cc1.Cl	4.6
O=C1c2cccnc2C(=O)N1C1CCCCC1	11.7
CC(C)(C)c1ccc(C(=O)NCCC(=O)NC2=NCCS2)cc1	8.26
Cc1cccnc1NC(=O)CCNC(=O)c1ccc(Br)cc1	11.4
CC(/C=N/NC(=O)c1cccnc1)=C\c1ccccc1	7.2
O=C(NCc1nc(-c2ccc(C(F)(F)F)cc2)no1)Nc1ccc(OC(F)(F)F)cc1	10.9
CNC(=O)COC(=O)c1cccc(S(=O)(=O)N2CCN(c3ccc(F)cc3)CC2)c1	12.3
CC1(C)CC(=O)C(N=Nc2ccc(C(F)(F)F)cc2[N+](=O)[O-])=C(O)C1	13
CC(C)(C)OC(=O)NC(Cc1ccccc1)C(=O)NC(CSC1CCCCO1)C(=O)NN (centres unmarked)	13.9
O=C(c1ccco1)N1CCN(c2cc(=O)n(C3CCCCC3)c(=O)[nH]2)CC1	0.353
CN(c1ccccc1)S(=O)(=O)c1cccc(C(=O)NCCc2c[nH]c3ccccc23)c1	5.58
CN1CCC(=C2c3ccccc3CCc3sccc32)CC1.O=C(O)/C=C\C(=O)O	-1.45
